Laboratory results reported in patent US20230303698A1 (published 2023).
Like-named read-outs stand apart in the source and are kept apart here.

T1: human OX40 (human, UniProt P43489 29-277)
T1 chain: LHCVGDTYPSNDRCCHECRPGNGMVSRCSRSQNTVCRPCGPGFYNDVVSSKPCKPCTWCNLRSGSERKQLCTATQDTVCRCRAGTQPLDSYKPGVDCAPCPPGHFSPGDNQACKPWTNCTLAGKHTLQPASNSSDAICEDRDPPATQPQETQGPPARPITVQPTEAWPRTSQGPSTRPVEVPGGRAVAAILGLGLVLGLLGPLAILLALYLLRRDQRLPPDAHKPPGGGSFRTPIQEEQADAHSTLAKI

T2: cynomolgus monkey 4-1BB (cynomolgus monkey)
T2 chain: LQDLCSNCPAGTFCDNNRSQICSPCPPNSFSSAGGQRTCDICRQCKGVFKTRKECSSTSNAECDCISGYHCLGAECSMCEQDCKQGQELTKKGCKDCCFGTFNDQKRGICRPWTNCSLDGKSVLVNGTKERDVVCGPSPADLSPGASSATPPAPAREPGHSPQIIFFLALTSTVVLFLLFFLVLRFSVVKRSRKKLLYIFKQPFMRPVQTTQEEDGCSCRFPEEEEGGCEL


Experiments:
Assay in all cases: FACS
[1] = target: T1, human OX40
[2] = target: T3, human 4-1BB (human, UniProt Q07011 24-255)
[3] = target: T2, cynomolgus monkey 4-1BB
[4] = target: T3, human 4-1BB; remark: listed apart in the source

| EC50 [1] [nM] | EC50 [2] [nM] | EC50 [3] [nM] | EC50 [4] [nM] | Binder |
| --- | --- | --- | --- | --- |
| 3.46 |  |  |  | PR004277 (bispecific antibody) chain 1: QVQLVESGGGVVQPGRSLRLSCAASGFTFRSFGMHWVRQAPGKGLEWVAVISYDASNEYYADSVKGRFIISRDNSKDTLYLQMNSLRAGDTAVYYCAKGGGLRWYFAYWGQGTLVTVSSASTKGPSVFPLAPSSKSTSGGTAALGCLVKDYFPEPVTVSWNSGALTSGVHTFPAVLQSSGLYSLSSVVTVPSSSLGTQTYICNVNHKPSNTKVDKKVEPKSC chain 2: EIVMTQSPATLSVSPGERATLSCRASQSISSNLGWYQQKPGQAPRLLIYGASTRATGIPARFSGSGSGTEFTLTISSLQSEDFAVYYCQQYQSWPPLTFGGGTKVEIKRTVAAPSVFIFPPSDEQLKSGTASVVCLLNNFYPREAKVQWKVDNALQSGNSQESVTEQDSKDSTYSLSSTLTLSKADYEKHKVYACEVTHQGLSSPVTKSFNRGECEPKSSDKTHTPPPPPEVQLLESGGGLVQPGGSLRLSCAASGFTFSSYAMSWVRQAPGKGLEWVSAISGRGGSTFYADSVRGRFTISRDNSKNTLYLQMNSLRAEDTAMYYCVDGTTGTTDVDYWGQGTLVTVSS[letters of human IgG1 Fc with changes not shown] |
|  | 0.755 |  |  | PR003487 (bispecific antibody) light: EIVMTQSPATLSVSPGERATLSCRASQSISSNLGWYQQKPGQAPRLLIYGASTRATGIPARFSGSGSGTEFTLTISSLQSEDFAVYYCQQYQSWPPLTFGGGTKVEIKRTVAAPSVFIFPPSDEQLKSGTASVVCLLNNFYPREAKVQWKVDNALQSGNSQESVTEQDSKDSTYSLSSTLTLSKADYEKHKVYACEVTHQGLSSPVTKSFNRGEC heavy: QVQLVESGGGVVQPGRSLRLSCAASGFTFRSFGMHWVRQAPGKGLEWVAVISYDASNEYYADSVKGRFIISRDNSKDTLYLQMNSLRAGDTAVYYCAKGGGLRWYFAYWGQGTLVTVSSASTKGPSVFPLAPSSKSTSGGTAALGCLVKDYFPEPVTVSWNSGALTSGVHTFPAVLQSSGLYSLSSVVTVPSSSLGTQTYICNVNHKPSNTKVDKKV[letters of human IgG1 Fc with changes not shown]EPKSSDKTHTPPPPPRTEVQLVESGGGVVQPGGSLRLSCAASGFTFSNYAMTWVRQAPEKGLEWVSSISGSGVSTYYADSVKGRFTISRDNSKNTLYLQMTRLTAEDTAVYFCAKEGSSETDDHYYNVDVWGQGTTVTVSSEVQLVESGGGVVQPGGSLRLSCAASGFTFSNYAMTWVRQAPEKGLEWVSSISGSGVSTYYADSVKGRFTISRDNSKNTLYLQMTRLTAEDTAVYFCAKEGSSETDDHYYNVDVWGQGTTVTVSS |

Continued, binder first:

| Binder | EC50 [1] [nM] | EC50 [2] [nM] | EC50 [3] [nM] | EC50 [4] [nM] |
| --- | --- | --- | --- | --- |
| PR003334 (bispecific antibody) light: EIVMTQSPATLSVSPGERATLSCRASQSISSNLGWYQQKPGQAPRLLIYGASTRATGIPARFSGSGSGTEFTLTISSLQSEDFAVYYCQQYQSWPPLTFGGGTKVEIKRTVAAPSVFIFPPSDEQLKSGTASVVCLLNNFYPREAKVQWKVDNALQSGNSQESVTEQDSKDSTYSLSSTLTLSKADYEKHKVYACEVTHQGLSSPVTKSFNRGEC heavy: QVQLVESGGGVVQPGRSLRLSCAASGFTFRSFGMHWVRQAPGKGLEWVAVISYDASNEYYADSVKGRFIISRDNSKDTLYLQMNSLRAGDTAVYYCAKGGGLRWYFAYWGQGTLVTVSSASTKGPSVFPLAPSSKSTSGGTAALGCLVKDYFPEPVTVSWNSGALTSGVHTFPAVLQSSGLYSLSSVVTVPSSSLGTQTYICNVNHKPSNTKVDKKV[letters of human IgG1 Fc with changes not shown]EPKSSDKTHTPPPPPRTEVQLLESGGGLVQLGGSLRLSCAASGFTFSRYAMTWVRQAPEKGLEWVSSISGSGDDTYYGDSVKGRFTISRDNSQNTVYLQMNSLRAEDTAVYFCAKEKAGTTGDYYYNVDVWGQGTTVTVSS |  | 0.483 | 0.658 |  |
| PR003335 (bispecific antibody) light: EIVMTQSPATLSVSPGERATLSCRASQSISSNLGWYQQKPGQAPRLLIYGASTRATGIPARFSGSGSGTEFTLTISSLQSEDFAVYYCQQYQSWPPLTFGGGTKVEIKRTVAAPSVFIFPPSDEQLKSGTASVVCLLNNFYPREAKVQWKVDNALQSGNSQESVTEQDSKDSTYSLSSTLTLSKADYEKHKVYACEVTHQGLSSPVTKSFNRGEC heavy: QVQLVESGGGVVQPGRSLRLSCAASGFTFRSFGMHWVRQAPGKGLEWVAVISYDASNEYYADSVKGRFIISRDNSKDTLYLQMNSLRAGDTAVYYCAKGGGLRWYFAYWGQGTLVTVSSASTKGPSVFPLAPSSKSTSGGTAALGCLVKDYFPEPVTVSWNSGALTSGVHTFPAVLQSSGLYSLSSVVTVPSSSLGTQTYICNVNHKPSNTKVDKKV[letters of human IgG1 Fc with changes not shown]EPKSSDKTHTPPPPPRTEVQLVESGGGVVQPGGSLRLSCAASGFTFSNYAMTWVRQAPEKGLEWVSSISGSGVSTYYADSVKGRFTISRDNSKNTLYLQMTRLTAEDTAVYFCAKEGSSETDDHYYNVDVWGQGTTVTVSS |  | 0.74 | 0.797 | 1.35 |
| PR003338 (bispecific antibody) light: EIVMTQSPATLSVSPGERATLSCRASQSISSNLGWYQQKPGQAPRLLIYGASTRATGIPARFSGSGSGTEFTLTISSLQSEDFAVYYCQQYQSWPPLTFGGGTKVEIKRTVAAPSVFIFPPSDEQLKSGTASVVCLLNNFYPREAKVQWKVDNALQSGNSQESVTEQDSKDSTYSLSSTLTLSKADYEKHKVYACEVTHQGLSSPVTKSFNRGEC heavy: QVQLVESGGGVVQPGRSLRLSCAASGFTFRSFGMHWVRQAPGKGLEWVAVISYDASNEYYADSVKGRFIISRDNSKDTLYLQMNSLRAGDTAVYYCAKGGGLRWYFAYWGQGTLVTVSSASTKGPSVFPLAPSSKSTSGGTAALGCLVKDYFPEPVTVSWNSGALTSGVHTFPAVLQSSGLYSLSSVVTVPSSSLGTQTYICNVNHKPSNTKVDKKV[letters of human IgG1 Fc with changes not shown]EPKSSDKTHTPPPPPRTEVQLLESGGGLVQPGGSLRLSCAASGFTFSNYAMSWFRQPPETGLKWVSSIDASGGDTYYADSVKGRFTISRDNSKNTLYLQMNSLRAEDTAVYYCAKEGSHGTDDSHYDVDVWGQGTTVTVSS |  |  | 1.29 |  |
